The values below come from PMC5681660, “Reduced hepatitis B and D viral entry using clinically applied drugs as novel inhibitors of the bile acid transporter NTCP” (Scientific Reports, 2017).

In assay [1] the target is T1, human NTCP (Homo sapiens, UniProt Q14973).
T1 sequence (Q14973 1-349): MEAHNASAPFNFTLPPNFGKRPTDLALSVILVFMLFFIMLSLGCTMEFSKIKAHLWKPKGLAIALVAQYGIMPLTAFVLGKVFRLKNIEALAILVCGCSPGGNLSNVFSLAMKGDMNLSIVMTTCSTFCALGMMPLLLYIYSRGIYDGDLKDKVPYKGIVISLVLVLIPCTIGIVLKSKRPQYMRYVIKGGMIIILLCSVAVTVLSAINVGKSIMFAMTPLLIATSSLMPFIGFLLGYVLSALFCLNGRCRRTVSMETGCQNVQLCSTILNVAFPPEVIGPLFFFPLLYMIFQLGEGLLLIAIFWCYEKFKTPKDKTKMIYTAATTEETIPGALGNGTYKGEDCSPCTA
The assay is described as follows: Screening taurocholate uptake assay (96-well, [14C]taurocholate, 10 µM drug). The settings on record: for remaining activity at 10 µM: 10 min, read-out: %NTCP activity.

Assay [2] addresses T1, human NTCP. The assay is described as follows: Screening fluorescent competitive Myrcludex B-FITC binding assay (96-well, 10 µM drug).
Setting [3] is: Prestwick library screen, 10 µM drug, [14C]taurocholate uptake.
The mark [4] stands for this setting: Prestwick library screen, 10 µM drug, Myrcludex B-FITC binding.

Structures are written as SMILES. Structures can show the parent of a compound that is named as a salt. Where two headings read alike, the source gives them in different places.

Regarding `CC(N)C12CC3CC(CC(C3)C1)C2` (stereo not shown) [Rimantadine Hydrochloride], the remaining activity at 10 µM in assay [1] stood at 114%; in assay [2] (0.5 h, read-out: %NTCP binding), 87.6%.
On the same counts, the results for `CCC(=O)[C@@]1(C)[C@H](C)C[C@H]2[C@@H]3CCC4=CC(=O)C=C[C@]4(C)[C@H]3[C@@H](O)C[C@@]21C` [Rimexolone] are 52.1% and 69%.
In the case of `O.O=P(O)(O)C(O)(Cc1cccnc1)P(=O)(O)O` [Risedronic acid monohydrate], the “%NTCP activity” value in assay [1] (setting [3]) is on record as 115.113%. Besides, the “%NTCP binding” value in assay [2] (setting [4]) worked out at 58.0818%.
As to `Cc1nc2n(c(=O)c1CCN1CCC(c3noc4cc(F)ccc34)CC1)CCCC2` [Risperidone], the remaining activity at 10 µM is 57.8% in assay [1] and 99.1% in assay [2] (0.5 h, read-out: %NTCP binding, Prestwick library screen, 10 µM drug, Myrcludex B-FITC binding).
With `CC(NCCc1ccc(O)cc1)C(O)c1ccc(O)cc1` (stereo not shown) [Ritodrine hydrochloride], the remaining activity at 10 µM in assay [1] is 64.8%; in assay [2] (0.5 h, read-out: %NTCP binding), 59.4%.
Consider `CN(C)CCc1c[nH]c2ccc(Cn3cncn3)cc12` [Rizatriptan benzoate], for which the remaining activity at 10 µM is 50% in assay [1] and 108% in assay [2] (0.5 h, read-out: %NTCP binding).
On the same counts, the results for `COc1ccc(C2CNC(=O)C2)cc1OC1CCCC1` (stereo not shown) [Rolipram] are 68.4% and 103%.
The matching figures for `Cn1c([N+](=O)[O-])cnc1COC(N)=O` [Ronidazole]: 86% and 81.7%.
On the same counts, the results for `CCCN(CCC)CCc1cccc2c1CC(=O)N2` [Ropinirole HCl] are 113% and 89.1%.
As to `CC(=O)OCC(=O)NCCCOc1cccc(CN2CCCCC2)c1` [Roxatidine Acetate HCl], the remaining activity at 10 µM in assay [1] amounted to 37.2%; in assay [2] (0.5 h, read-out: %NTCP binding, screen, 10 µM drug, Myrcludex B-FITC binding) it was 80.3%.
As to `CN1CCN(c2c(F)cc3c(=O)c(C(=O)O)cn4c3c2SCC4)CC1` [Rufloxacin], the remaining activity at 10 µM in assay [1] was found to be 83.6%; in assay [2] (0.5 h, read-out: %NTCP binding), 94.2%.
On the same counts, the results for `OCc1cc(C(O)CNCCCCCCOCCCCc2ccccc2)ccc1O` (stereo not shown) [Salmeterol] are 63.6% and 78.3%.
On the same counts, the results for `O=C(O)c1cn(-c2ccc(F)cc2)c2cc(N3CCNCC3)c(F)cc2c1=O` [Sarafloxacin] are 131% and 80%.
As to `Cc1ncc([N+](=O)[O-])n1CC(C)O` (stereo not shown) [Secnidazole], the remaining activity at 10 µM in assay [1] was found to be 97.5%; in assay [2] (0.5 h, read-out: %NTCP binding), 84.8%.
On the same counts, the results for `Clc1ccc(C(Cn2ccnc2)OCc2csc3c(Cl)cccc23)c(Cl)c1` (stereo not shown) [Sertaconazole nitrate] are 86.9% and 91.1%.
On the same counts, the results for `O=C1NCCN1CCN1CCC(c2cn(-c3ccc(F)cc3)c3ccc(Cl)cc23)CC1` [Sertindole] are 139% and 77.7%.
The matching figures for `CN[C@H]1CC[C@@H](c2ccc(Cl)c(Cl)c2)c2ccccc21` [Sertraline]: 99.9% and 80.1%.
`CCCc1nn(C)c2c(=O)[nH]c(-c3cc(S(=O)(=O)N4CCN(C)CC4)ccc3OCC)nc12` [Sildenafil]: the remaining activity at 10 µM in assay [1] turned out to be 134%; in assay [2] (0.5 h, read-out: %NTCP binding) it was 84.4%.
On the same counts, the results for `C[C@H](Cc1cc2c(c(C(N)=O)c1)N(CCCO)CC2)NCCOc1ccccc1OCC(F)(F)F` [Silodosin] are 72.9% and 91.7%.
Consider `CN[C@@H]1[C@@H](O)[C@@H](O[C@@H]2[C@@H](O)[C@H](O[C@H]3OC(CN)=CC[C@H]3N)[C@@H](N)C[C@H]2N)OC[C@]1(C)O` [Sisomicin sulfate], for which the remaining activity at 10 µM turned out to be 31.8% in assay [1] and 80.2% in assay [2] (0.5 h, read-out: %NTCP binding).
For the compound `CC(C)NCC(O)c1ccc(NS(C)(=O)=O)cc1` (stereo not shown) [Sotalol hydrochloride], the remaining activity at 10 µM was determined as 58.5% in assay [1] and 126% in assay [2] (0.5 h, read-out: %NTCP binding).
On the same counts, the results for `CC(=O)N[C@@H](CC(=O)N[C@@H](CCC(=O)O)C(=O)O)C(=O)O` [Spaglumic acid] are 103% and 100%.
The matching figures for `O=C(CCCN1CCC2(CC1)C(=O)NCN2c1ccccc1)c1ccc(F)cc1` [Spiperone]: 24.8% and 73.9%.
Take `CC(=O)S[C@@H]1CC2=CC(=O)CC[C@]2(C)[C@H]2CC[C@@]3(C)[C@@H](CC[C@@]34CCC(=O)O4)[C@H]12` [Spironolactone]: the remaining activity at 10 µM was found to be 87.6% in assay [1] and 88.4% in assay [2] (0.5 h, read-out: %NTCP binding).
Turning to `C[C@]12Cc3c[nH]nc3C[C@@H]1CC[C@@H]1[C@@H]2CC[C@@]2(C)[C@H]1CC[C@]2(C)O` [Stanozolol], the remaining activity at 10 µM amounted to 46.8% in assay [1] and 47.1% in assay [2] (0.5 h, read-out: %NTCP binding).
Turning to `Cc1cn([C@H]2C=C[C@@H](CO)O2)c(=O)[nH]c1=O` [Stavudine], the remaining activity at 10 µM in assay [1] came to 75.9%; in assay [2] (0.5 h, read-out: %NTCP binding), 83.2%.
For `Nc1ccc(S(=O)(=O)NC(=O)c2ccccc2)cc1` [Sulfabenzamide], the remaining activity at 10 µM in assay [1] came out at 144%; in assay [2] (0.5 h, read-out: %NTCP binding) it was 70.5%.
Turning to `Nc1ccc(S(=O)(=O)Nc2ccc(Cl)nn2)cc1` [Sulfachloropyridazine], the remaining activity at 10 µM in assay [1] stood at 138%; in assay [2] (0.5 h, read-out: %NTCP binding) it was 71.4%.
On the same counts, the results for `COc1cc(NS(=O)(=O)c2ccc(N)cc2)nc(OC)n1` [Sulfadimethoxine] are 103% and 77.1%.
For the compound `COc1ncnc(NS(=O)(=O)c2ccc(N)cc2)c1OC` [Sulfadoxine], the remaining activity at 10 µM in assay [1] is 86%; in assay [2] (0.5 h, read-out: %NTCP binding), 105%.
With `[H]/N=C(/N)NS(=O)(=O)c1ccc(N)cc1` [Sulfaguanidine], the remaining activity at 10 µM amounted to 92.8% in assay [1] and 128% in assay [2] (0.5 h, read-out: %NTCP binding).
Consider `Cc1ccnc(NS(=O)(=O)c2ccc(N)cc2)n1` [Sulfamerazine], for which the remaining activity at 10 µM in assay [1] was determined as 124%; in assay [2] (0.5 h, read-out: %NTCP binding) it was 79.2%.
Take `COc1cnc(NS(=O)(=O)c2ccc(N)cc2)nc1` [Sulfameter]: the remaining activity at 10 µM in assay [1] worked out at 97.5%; in assay [2] (0.5 h, read-out: %NTCP binding) it was 92.9%.
In the case of `Cc1cc(C)nc([N-]S(=O)(=O)c2ccc(N)cc2)n1.[Na+]` [Sulfamethazine sodium salt], the “%NTCP activity” value in assay [1] (Prestwick library screen, [14C]taurocholate uptake, 10 µM drug) is on record as 72.166%. Also, the “%NTCP binding” value in assay [2] (Prestwick library screen, Myrcludex B-FITC binding, 10 µM drug) is on record as 92.5333%.
Regarding `Cc1nnc(NS(=O)(=O)c2ccc(N)cc2)s1` [Sulfamethizole], the remaining activity at 10 µM in assay [1] came to 107%; in assay [2] (0.5 h, read-out: %NTCP binding), 130%.
For `COc1ccc(NS(=O)(=O)c2ccc(N)cc2)nn1` [Sulfamethoxypyridazine], the remaining activity at 10 µM is 75.2% in assay [1] and 110% in assay [2] (0.5 h, read-out: %NTCP binding).
In the case of `COc1cc(NS(=O)(=O)c2ccc(N)cc2)ncn1` [Sulfamonomethoxine], the remaining activity at 10 µM in assay [1] came out at 96.6%; in assay [2] (0.5 h, read-out: %NTCP binding) it was 113%.
In the case of `Nc1ccc(S(N)(=O)=O)cc1` [Sulfanilamide], the remaining activity at 10 µM in assay [1] was 108%; in assay [2] (0.5 h, read-out: %NTCP binding), 69.5%.
On the same counts, the results for `Nc1ccc(S(=O)(=O)Nc2ccnn2-c2ccccc2)cc1` [Sulfaphenazole] are 118% and 113%.
The matching figures for `Nc1ccc(S(=O)(=O)Nc2ccccn2)cc1` [Sulfapyridine]: 90.7% and 89.6%.
As to `Nc1ccc(S(=O)(=O)[N-]c2cnc3ccccc3n2)cc1.[Na+]` [Sulfaquinoxaline sodium salt], the “%NTCP activity” value in assay [1] (setting [3]) turned out to be 115.286%. In assay [2] (setting [4]), the “%NTCP binding” value came out at 111.512%.
As for `Nc1ccc(S(=O)(=O)Nc2nccs2)cc1` [Sulfathiazole], the remaining activity at 10 µM in assay [1] turned out to be 65.1%; in assay [2] (0.5 h, read-out: %NTCP binding), 111%.
On the same counts, the results for `COc1cc([S+](C)[O-])ccc1-c1nc2ncccc2[nH]1` (stereo not shown) [Sulmazole] are 124% and 64.6%.
With `CCCCCCCCNC(C)C(O)c1ccc(SC(C)C)cc1` (stereo not shown) [Suloctidil], the remaining activity at 10 µM in assay [1] was 98.1%; in assay [2] (0.5 h, read-out: %NTCP binding) it was 62.4%.
On the same counts, the results for `CCN1CCCC1CNC(=O)c1cc(S(N)(=O)=O)ccc1OC` (stereo not shown) [Sulpiride] are 96.3% and 111%.
The matching figures for `CNS(=O)(=O)Cc1ccc2[nH]cc(CCN(C)C)c2c1` [Sumatriptan succinate]: 113% and 86%.
On the same counts, the results for `CC(C(=O)O)c1ccc(C(=O)c2cccs2)cc1` (stereo not shown) [Suprofen] are 87.5% and 121%.
Regarding `CCCCC1(COC(=O)CCC(=O)O)C(=O)N(c2ccccc2)N(c2ccccc2)C1=O` [Suxibuzone], the remaining activity at 10 µM amounted to 57.5% in assay [1] and 91.7% in assay [2] (0.5 h, read-out: %NTCP binding).
Turning to `Cl.O=c1[nH]oc2c1CCNC2` [THIP Hydrochloride], in assay [1], the “%NTCP activity” value was 85.8813%. For the same compound, the “%NTCP binding” value in assay [2] (screen, 10 µM drug, Myrcludex B-FITC binding) was determined as 94.9831%.
With `CC/C(=C(\c1ccccc1)c1ccc(OCCN(C)C)cc1)c1ccccc1` [Tamoxifen citrate], the remaining activity at 10 µM in assay [1] stood at 69.2%; in assay [2] (0.5 h, read-out: %NTCP binding), 81.8%.
